{"source": "the supplement of paper PMC10126150", "note": "Sequences with one replicate were seen in a single cluster, so their values are uncertain.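 Also: ATP exposure 15 min at 22 °C before imaging.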"}
{"test_system": "ATP", "experiment": "switch fluorescence ratio, 500 uM ATP over buffer (Cy3 cluster intensity, sum of 5 cycles each) (fold (ratio)); higher = stronger signal-on switching upon ATP binding; sequences stand for … in TCGTCGGCAGCGTCAGATGTGTATAAGAGACAGTTTTTTTTTTTTTTTTTTTTTTTTT…TC", "details": "aptamer strand: ATP DNA aptamer (quencher-CACCTGGGGGAGTATTGCGGAGGAAGG + anchor), 100 nM annealed; ATP concentration: 500 uM; one replicate", "in_short": "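Cy3-labelled switching-strand clusters on a modified Illumina MiSeq flow-cell were annealed to 100 nM quencher-labelled ATP aptamer, imaged in selection buffer, then imaged after 15 min with 500 uM ATP at 22 °C. Five buffer/ATP cycles ran, with NaOH stripping and re-annealing between them. The fluorescence ratio is summed target-cycle over summed buffer-cycle Cy3 intensity per cluster, averaged per switch-domain sequence. Clusters outside 100-1000 RFU were excluded.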"}
{"sequence": "CGTTAACGTT", "switch fluorescence ratio": 0.999}
{"sequence": "CGTTAAGGTT", "switch fluorescence ratio": 0.938}
{"sequence": "CGTTAATTAA", "switch fluorescence ratio": 0.958}
{"sequence": "CGTTACGGCG", "switch fluorescence ratio": 1.03}
{"sequence": "CGTTAGAGGA", "switch fluorescence ratio": 0.991}
{"sequence": "CGTTAGAGGG", "switch fluorescence ratio": 0.98}
{"sequence": "CGTTAGCGGC", "switch fluorescence ratio": 1.03}
{"sequence": "CGTTAGTTAA", "switch fluorescence ratio": 0.991}
{"sequence": "CGTTATCCAG", "switch fluorescence ratio": 0.989}
{"sequence": "CGTTATCGTT", "switch fluorescence ratio": 0.979}
{"sequence": "CGTTATGGAT", "switch fluorescence ratio": 0.966}
{"sequence": "CGTTATGGTG", "switch fluorescence ratio": 1.05}
{"sequence": "CGTTATTTGC", "switch fluorescence ratio": 1.02}
{"sequence": "CGTTCAGAGT", "switch fluorescence ratio": 1.01}
{"sequence": "CGTTCATCAT", "switch fluorescence ratio": 0.95}
{"sequence": "CGTTCCCCAT", "switch fluorescence ratio": 1.01}
{"sequence": "CGTTCGAAGC", "switch fluorescence ratio": 1.08}
{"sequence": "CGTTCGGA", "switch fluorescence ratio": 1.02}
{"sequence": "CGTTGCCCCG", "switch fluorescence ratio": 1.03}
{"sequence": "CGTTGCTGTA", "switch fluorescence ratio": 0.967}
{"sequence": "CGTTGGAACT", "switch fluorescence ratio": 1.01}
{"sequence": "CGTTGGAGGA", "switch fluorescence ratio": 1.04}
{"sequence": "CGTTGGTCGA", "switch fluorescence ratio": 1.02}
{"sequence": "CGTTGTCTG", "switch fluorescence ratio": 0.993}
{"sequence": "CGTTGTGTGG", "switch fluorescence ratio": 0.976}
{"sequence": "CGTTTAAAGG", "switch fluorescence ratio": 1.01}
{"sequence": "CGTTTAAGGA", "switch fluorescence ratio": 0.989}
{"sequence": "CGTTTAATCT", "switch fluorescence ratio": 0.984}
{"sequence": "CGTTTAGAGC", "switch fluorescence ratio": 1.02}
{"sequence": "CGTTTAGGC", "switch fluorescence ratio": 0.961}
{"sequence": "CGTTTATACC", "switch fluorescence ratio": 1.07}
{"sequence": "CGTTTGAAGT", "switch fluorescence ratio": 0.934}
{"sequence": "CGTTTGCGT", "switch fluorescence ratio": 1.03}
{"sequence": "CGTTTGGGAA", "switch fluorescence ratio": 0.99}
{"sequence": "CGTTTGTGCT", "switch fluorescence ratio": 0.977}
{"sequence": "CGTTTTTTGG", "switch fluorescence ratio": 0.973}
{"sequence": "CTAAAAAATG", "switch fluorescence ratio": 1.04}
{"sequence": "CTAAACAACA", "switch fluorescence ratio": 1.05}
{"sequence": "CTAAACGAAC", "switch fluorescence ratio": 1.23}
{"sequence": "CTAAAGAGCT", "switch fluorescence ratio": 0.967}
{"sequence": "CTAAAGGGGT", "switch fluorescence ratio": 1}
{"sequence": "CTAAAGGGTA", "switch fluorescence ratio": 1.03}
{"sequence": "CTAAATAGAC", "switch fluorescence ratio": 1}
{"sequence": "CTAAATCGG", "switch fluorescence ratio": 1.04}
{"sequence": "CTAAATCTAG", "switch fluorescence ratio": 0.982}
{"sequence": "CTAAATGCAA", "switch fluorescence ratio": 1.4}
{"sequence": "CTAACAGCAA", "switch fluorescence ratio": 4.55}
{"sequence": "CTAACAGTAC", "switch fluorescence ratio": 1.6}
{"sequence": "CTAACCCTAC", "switch fluorescence ratio": 1.26}
{"sequence": "CTAACCGATC", "switch fluorescence ratio": 1.56}
{"sequence": "CTAACGCCGG", "switch fluorescence ratio": 1.04}
{"sequence": "CTAACTAACG", "switch fluorescence ratio": 1.26}
{"sequence": "CTAACTAGGG", "switch fluorescence ratio": 0.964}
{"sequence": "CTAACTATTT", "switch fluorescence ratio": 1.05}
{"sequence": "CTAAGATCCT", "switch fluorescence ratio": 0.928}
{"sequence": "CTAAGCGATT", "switch fluorescence ratio": 1.13}
{"sequence": "CTAAGCGGAA", "switch fluorescence ratio": 1.04}
{"sequence": "CTAAGGTCGG", "switch fluorescence ratio": 0.93}
{"sequence": "CTAAGTAGTT", "switch fluorescence ratio": 0.981}
{"sequence": "CTAAGTTTAT", "switch fluorescence ratio": 0.96}
{"sequence": "CTAAGTTTGT", "switch fluorescence ratio": 0.995}
{"sequence": "CTAATAAATG", "switch fluorescence ratio": 0.979}
{"sequence": "CTAATATTTA", "switch fluorescence ratio": 1.01}
{"sequence": "CTAATCATTA", "switch fluorescence ratio": 0.975}
{"sequence": "CTAATCGGGT", "switch fluorescence ratio": 1}
{"sequence": "CTAATTGAAT", "switch fluorescence ratio": 1.01}
{"sequence": "CTAATTGACA", "switch fluorescence ratio": 1}
{"sequence": "CTACAAGCAT", "switch fluorescence ratio": 1.17}
{"sequence": "CTACAAGTAC", "switch fluorescence ratio": 1.62}
{"sequence": "CTACACAAGG", "switch fluorescence ratio": 1.15}
{"sequence": "CTACACGCAG", "switch fluorescence ratio": 1.07}
{"sequence": "CTACACGGTT", "switch fluorescence ratio": 1}
{"sequence": "CTACACTACG", "switch fluorescence ratio": 1.54}
{"sequence": "CTACACTCTC", "switch fluorescence ratio": 1.03}
{"sequence": "CTACATCTCG", "switch fluorescence ratio": 0.992}
{"sequence": "CTACATGGTT", "switch fluorescence ratio": 1.03}
{"sequence": "CTACCATGGT", "switch fluorescence ratio": 1.04}
{"sequence": "CTACCTTTTT", "switch fluorescence ratio": 0.983}
{"sequence": "CTACGACAGC", "switch fluorescence ratio": 1.5}
{"sequence": "CTACGATTCG", "switch fluorescence ratio": 1.03}
{"sequence": "CTACGGAAAT", "switch fluorescence ratio": 1.13}
{"sequence": "CTACTAGCGA", "switch fluorescence ratio": 1.41}
{"sequence": "CTACTCGTCT", "switch fluorescence ratio": 1.02}
{"sequence": "CTACTGTTAC", "switch fluorescence ratio": 1.34}
{"sequence": "CTAGAAAGAG", "switch fluorescence ratio": 0.974}
{"sequence": "CTAGATGAGA", "switch fluorescence ratio": 1.04}
{"sequence": "CTAGCAAACG", "switch fluorescence ratio": 1.5}
{"sequence": "CTAGCAACAA", "switch fluorescence ratio": 1.32}
{"sequence": "CTAGCAGTGC", "switch fluorescence ratio": 1.71}
{"sequence": "CTAGCGAGTG", "switch fluorescence ratio": 0.962}
{"sequence": "CTAGCTGATA", "switch fluorescence ratio": 0.932}
{"sequence": "CTAGCTTCTG", "switch fluorescence ratio": 1.02}
{"sequence": "CTAGGAAA", "switch fluorescence ratio": 0.97}
{"sequence": "CTAGGCCCAG", "switch fluorescence ratio": 1.01}
{"sequence": "CTAGGCGTGG", "switch fluorescence ratio": 0.957}
{"sequence": "CTAGGGACGA", "switch fluorescence ratio": 1.04}
{"sequence": "CTAGGGCGGG", "switch fluorescence ratio": 0.988}
{"sequence": "CTAGGGTCCG", "switch fluorescence ratio": 1.01}
{"sequence": "CTAGTAGCTC", "switch fluorescence ratio": 1.04}
{"sequence": "CTAGTATG", "switch fluorescence ratio": 0.961}
